Results as given in patent publication US4537717A.
In brackets after ≈: the same amount, converted by molar mass.

Tested on: Staphylococcus aureus S13E
Format: cell-based
Details: agar dilution; 2, 5, 17, 22 median of three tests; paired values two experiments

Compound | MIC Staphylococcus aureus S13E
CCCCC=CCCCCCCCC(=O)N[C@@H](Cc1c[nH]c2ccccc12)C(=O)N[C@@H](CC(N)=O)C(=O)N[C@@H](CC(=O)O)C(=O)N[C@@H]1C(=O)NCC(=O)N[C@@H](CCCN)C(=O)N[C@@H](CC(=O)O)C(=O)N[C@H](C)C(=O)N[C@@H](CC(=O)O)C(=O)NCC(=O)N[C@H](CO)C(=O)N[C@@H]([C@H](C)CC(=O)O)C(=O)N[C@@H](CC(=O)c2ccccc2N)C(=O)O[C@@H]1C [Compound 12] | 1 µg/mL (≈ 0.597 µM)
CCCCCCCCCCCC(=O)N[C@@H](Cc1c[nH]c2ccccc12)C(=O)N[C@@H](CC(N)=O)C(=O)N[C@@H](CC(=O)O)C(=O)N[C@@H]1C(=O)NCC(=O)N[C@@H](CCCN)C(=O)N[C@@H](CC(=O)O)C(=O)N[C@H](C)C(=O)N[C@@H](CC(=O)O)C(=O)NCC(=O)N[C@H](CO)C(=O)N[C@@H]([C@H](C)CC(=O)O)C(=O)N[C@@H](CC(=O)c2ccccc2N)C(=O)O[C@@H]1C [Compound 6] | 0.5 µg/mL (≈ 0.303 µM)
CCCCCCCCCCC(=O)N[C@@H](Cc1c[nH]c2ccccc12)C(=O)N[C@@H](CC(N)=O)C(=O)N[C@@H](CC(=O)O)C(=O)N[C@@H]1C(=O)NCC(=O)N[C@@H](CCCN)C(=O)N[C@@H](CC(=O)O)C(=O)N[C@H](C)C(=O)N[C@@H](CC(=O)O)C(=O)NCC(=O)N[C@H](CO)C(=O)N[C@@H]([C@H](C)CC(=O)O)C(=O)N[C@@H](CC(=O)c2ccccc2N)C(=O)O[C@@H]1C [Compound 5] | 0.5 µg/mL (≈ 0.306 µM)
CCCCCCCCC(=O)N[C@@H](Cc1c[nH]c2ccccc12)C(=O)N[C@@H](CC(N)=O)C(=O)N[C@@H](CC(=O)O)C(=O)N[C@@H]1C(=O)NCC(=O)N[C@@H](CCCN)C(=O)N[C@@H](CC(=O)O)C(=O)N[C@H](C)C(=O)N[C@@H](CC(=O)O)C(=O)NCC(=O)N[C@H](CO)C(=O)N[C@@H]([C@H](C)CC(=O)O)C(=O)N[C@@H](CC(=O)c2ccccc2N)C(=O)O[C@@H]1C [Compound 3] | 2 µg/mL (≈ 1.24 µM)
CCCCCCC(=O)N[C@@H](Cc1c[nH]c2ccccc12)C(=O)N[C@@H](CC(N)=O)C(=O)N[C@@H](CC(=O)O)C(=O)N[C@@H]1C(=O)NCC(=O)N[C@@H](CCCN)C(=O)N[C@@H](CC(=O)O)C(=O)N[C@H](C)C(=O)N[C@@H](CC(=O)O)C(=O)NCC(=O)N[C@H](CO)C(=O)N[C@@H]([C@H](C)CC(=O)O)C(=O)N[C@@H](CC(=O)c2ccccc2N)C(=O)O[C@@H]1C [Compound 1] | 8 µg/mL (≈ 5.07 µM)
CCCCCCCC(=O)N[C@@H](Cc1c[nH]c2ccccc12)C(=O)N[C@@H](CC(N)=O)C(=O)N[C@@H](CC(=O)O)C(=O)N[C@@H]1C(=O)NCC(=O)N[C@@H](CCCN)C(=O)N[C@@H](CC(=O)O)C(=O)N[C@H](C)C(=O)N[C@@H](CC(=O)O)C(=O)NCC(=O)N[C@H](CO)C(=O)N[C@@H]([C@H](C)CC(=O)O)C(=O)N[C@@H](CC(=O)c2ccccc2N)C(=O)O[C@@H]1C [Compound 2] | 4 µg/mL (≈ 2.51 µM)
CCCCCCCCCCCCCCCC(=O)N[C@@H](Cc1c[nH]c2ccccc12)C(=O)N[C@@H](CC(N)=O)C(=O)N[C@@H](CC(=O)O)C(=O)N[C@@H]1C(=O)NCC(=O)N[C@@H](CCCN)C(=O)N[C@@H](CC(=O)O)C(=O)N[C@H](C)C(=O)N[C@@H](CC(=O)O)C(=O)NCC(=O)N[C@H](CO)C(=O)N[C@@H]([C@H](C)CC(=O)O)C(=O)N[C@@H](CC(=O)c2ccccc2N)C(=O)O[C@@H]1C [Compound 10] | 1 µg/mL (≈ 0.587 µM)
CCCCCCCCCCCCCC(=O)N[C@@H](Cc1c[nH]c2ccccc12)C(=O)N[C@@H](CC(N)=O)C(=O)N[C@@H](CC(=O)O)C(=O)N[C@@H]1C(=O)NCC(=O)N[C@@H](CCCN)C(=O)N[C@@H](CC(=O)O)C(=O)N[C@H](C)C(=O)N[C@@H](CC(=O)O)C(=O)NCC(=O)N[C@H](CO)C(=O)N[C@@H]([C@H](C)CC(=O)O)C(=O)N[C@@H](CC(=O)c2ccccc2N)C(=O)O[C@@H]1C [Compound 8] | 1 µg/mL (≈ 0.596 µM)
CCCCCCCC(=O)NCCC[C@@H]1NC(=O)CNC(=O)[C@@H](NC(=O)[C@H](CC(=O)O)NC(=O)[C@H](CC(N)=O)NC(=O)[C@H](Cc2c[nH]c3ccccc23)NC(=O)CCCCCCC)[C@@H](C)OC(=O)[C@H](CC(=O)c2ccccc2N)NC(=O)[C@H]([C@H](C)CC(=O)O)NC(=O)[C@@H](CO)NC(=O)CNC(=O)[C@H](CC(=O)O)NC(=O)[C@@H](C)NC(=O)[C@H](CC(=O)O)NC1=O [Compound 16] | 8 µg/mL (≈ 4.65 µM)
CCCCCCCCCCCCC(=O)N[C@@H](Cc1c[nH]c2ccccc12)C(=O)N[C@@H](CC(N)=O)C(=O)N[C@@H](CC(=O)O)C(=O)N[C@@H]1C(=O)NCC(=O)N[C@@H](CCCN)C(=O)N[C@@H](CC(=O)O)C(=O)N[C@H](C)C(=O)N[C@@H](CC(=O)O)C(=O)NCC(=O)N[C@H](CO)C(=O)N[C@@H]([C@H](C)CC(=O)O)C(=O)N[C@@H](CC(=O)c2ccccc2N)C(=O)O[C@@H]1C [Compound 7] | 0.25 µg/mL (≈ 0.15 µM)
CCCCCCCCCCCCN[C@@H](Cc1c[nH]c2ccccc12)C(=O)N[C@@H](CC(N)=O)C(=O)N[C@@H](CC(=O)O)C(=O)N[C@@H]1C(=O)NCC(=O)N[C@@H](CCCN)C(=O)N[C@@H](CC(=O)O)C(=O)N[C@H](C)C(=O)N[C@@H](CC(=O)O)C(=O)NCC(=O)N[C@H](CO)C(=O)N[C@@H]([C@H](C)CC(=O)O)C(=O)N[C@@H](CC(=O)c2ccccc2N)C(=O)O[C@@H]1C [Compound 22, NTrp -(n-dodecyl)-A-21978C nucleus] | 0.5 µg/mL (≈ 0.306 µM)
NTrp -(n-dodecyl)-NOrn -(n-dodecyl)-A-21978C nucleus [Compound 23] | 8 µg/mL
C=CCCCCCCCCC(=O)N[C@@H](Cc1c[nH]c2ccccc12)C(=O)N[C@@H](CC(N)=O)C(=O)N[C@@H](CC(=O)O)C(=O)N[C@@H]1C(=O)NCC(=O)N[C@@H](CCCN)C(=O)N[C@@H](CC(=O)O)C(=O)N[C@H](C)C(=O)N[C@@H](CC(=O)O)C(=O)NCC(=O)N[C@H](CO)C(=O)N[C@@H]([C@H](C)CC(=O)O)C(=O)N[C@@H](CC(=O)c2ccccc2N)C(=O)O[C@@H]1C [Compound 11] | 0.25 µg/mL (≈ 0.153 µM)
NTrp -(n-Decanoyl)-NKyn -(n-decanoyl)-A-21978C [Compound 21] | 16 µg/mL
CCCCCCCCCCCCCCC(=O)N[C@@H](Cc1c[nH]c2ccccc12)C(=O)N[C@@H](CC(N)=O)C(=O)N[C@@H](CC(=O)O)C(=O)N[C@@H]1C(=O)NCC(=O)N[C@@H](CCCN)C(=O)N[C@@H](CC(=O)O)C(=O)N[C@H](C)C(=O)N[C@@H](CC(=O)O)C(=O)NCC(=O)N[C@H](CO)C(=O)N[C@@H]([C@H](C)CC(=O)O)C(=O)N[C@@H](CC(=O)c2ccccc2N)C(=O)O[C@@H]1C [Compound 9] | 1 µg/mL (≈ 0.591 µM)
CCCCCCCCCCC(=O)NCCC[C@@H]1NC(=O)CNC(=O)[C@@H](NC(=O)[C@H](CC(=O)O)NC(=O)[C@H](CC(N)=O)NC(=O)[C@H](Cc2c[nH]c3ccccc23)NC(=O)CCCCCCCCCC)[C@@H](C)OC(=O)[C@H](CC(=O)c2ccccc2N)NC(=O)[C@H]([C@H](C)CC(=O)O)NC(=O)[C@@H](CO)NC(=O)CNC(=O)[C@H](CC(=O)O)NC(=O)[C@@H](C)NC(=O)[C@H](CC(=O)O)NC1=O [Compound 17] | 1 µg/mL (≈ 0.555 µM)
